About 14,000 (4.5%) of roughly 310,000 compounds showed an effect of 50% or more. Effects have a minus sign here. This is one part of the list.
target: human ether-à-go-go-related gene (hERG) potassium channel (human, UniProt Q12809); test: primary screen, population patch clamp on CHO cells stably expressing hERG
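Note: peak tail current of the secondary pulse compared with the same well before compound.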

human ether-à-go-go-related gene (hERG) potassium channel, sequence (Q12809 whole entry, looked up): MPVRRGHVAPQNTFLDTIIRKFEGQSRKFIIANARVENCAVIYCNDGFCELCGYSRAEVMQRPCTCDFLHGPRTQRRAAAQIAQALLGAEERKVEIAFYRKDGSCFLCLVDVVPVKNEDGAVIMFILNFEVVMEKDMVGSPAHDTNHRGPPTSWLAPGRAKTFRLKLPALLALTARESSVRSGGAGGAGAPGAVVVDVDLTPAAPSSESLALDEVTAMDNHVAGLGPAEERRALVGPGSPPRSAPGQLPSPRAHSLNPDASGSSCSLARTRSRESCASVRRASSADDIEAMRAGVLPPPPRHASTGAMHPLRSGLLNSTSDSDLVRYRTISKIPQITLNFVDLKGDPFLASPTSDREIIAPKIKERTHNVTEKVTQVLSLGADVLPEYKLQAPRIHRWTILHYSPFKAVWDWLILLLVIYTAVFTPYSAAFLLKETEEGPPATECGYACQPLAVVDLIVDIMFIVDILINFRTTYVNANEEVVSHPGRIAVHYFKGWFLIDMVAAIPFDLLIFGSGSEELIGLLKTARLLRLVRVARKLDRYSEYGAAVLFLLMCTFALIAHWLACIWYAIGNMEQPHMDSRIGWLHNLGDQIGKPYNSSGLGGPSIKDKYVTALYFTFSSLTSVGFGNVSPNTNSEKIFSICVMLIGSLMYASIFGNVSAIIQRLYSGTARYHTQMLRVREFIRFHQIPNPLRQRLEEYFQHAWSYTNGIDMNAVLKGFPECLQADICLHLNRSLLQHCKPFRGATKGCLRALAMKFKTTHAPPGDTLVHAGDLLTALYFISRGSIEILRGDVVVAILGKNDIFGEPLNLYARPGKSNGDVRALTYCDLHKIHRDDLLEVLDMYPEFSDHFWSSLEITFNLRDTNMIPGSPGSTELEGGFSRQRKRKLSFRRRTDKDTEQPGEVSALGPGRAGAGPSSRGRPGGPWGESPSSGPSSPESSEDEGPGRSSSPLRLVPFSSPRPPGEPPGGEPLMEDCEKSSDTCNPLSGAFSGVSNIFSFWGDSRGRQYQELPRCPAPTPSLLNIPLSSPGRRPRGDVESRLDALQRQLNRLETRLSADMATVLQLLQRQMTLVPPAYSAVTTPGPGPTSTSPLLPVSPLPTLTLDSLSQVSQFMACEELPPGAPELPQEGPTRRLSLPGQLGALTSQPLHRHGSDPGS

Row | SMILES | hERG current change (%, negative = inhibition) at 10uM [%]
1 | CN(Cc1ccccc1)C(=O)c1[nH]cnc1C(=O)NCC(=O)OC(C)(C)C | 10.4
2 | COc1cccc(-n2nnnc2SCC(=O)Nc2nc3c(s2)CCCC3)c1 | 3.59
3 | COc1ccc2c(c1)CCC/C2=N\OC(=O)c1ccccc1F | 1.16
4 | COc1ccc(C2c3ccsc3CCN2C(C)=O)cc1 (stereo not drawn) | 3.26
5 | Nc1nc(CSc2nnc(-c3cccc(F)c3)n2-c2ccccc2)nc(N2CCOCC2)n1 | 11.5
6 | Cc1cc(C(=O)O/N=C(\N)c2ccncc2)ccc1[N+](=O)[O-] | -22.9
7 | NC(=O)CC(NC(=O)Cc1cccc2ccccc12)c1ccc(N2CCCCCCC2)c([N+](=O)[O-])c1 (stereo not drawn) | -2.7
8 | COc1ccc(F)cc1S(=O)(=O)n1nnc2ccccc21 | 3.56
9 | C=CCn1c(=N)c(C(=O)OCC)cc2c(=O)n3cccc(C)c3nc21 | -72.9
10 | Cc1cc(C(=O)Nc2ccc(N3CCOCC3)c3nonc23)ccc1[N+](=O)[O-] | -4.44
11 | Cc1nc2ccc(NC(=O)c3ccc(Br)o3)cc2s1 | 7.61
12 | CCOC(=O)c1[nH]c(C)c(C(=O)C(C)C)c1C | 9.78
13 | CC(C)NC(=O)N1CCN(c2ccncc2S(=O)(=O)N2CCOCC2)CC1 | -5.92
14 | CCn1c2ccccc2c2cc(NC(=O)c3cc(C)on3)ccc21 | 23
15 | CC(C)(C)NC(=O)C(c1ccccc1)N(C(=O)C1CSC(=O)C1)c1ccccc1 (stereo not drawn) | 3.97
16 | CCCCn1c(N)c(N(CC(C)C)C(=O)C2CSC3(C)CCC(=O)N23)c(=O)[nH]c1=O (stereo not drawn) | 24.9
17 | COc1ccc(S(=O)(=O)NC(C)C(=O)NCc2ccncc2)cc1Cl (stereo not drawn) | 8.04
18 | O=c1cc(O)c2c(=O)n(-c3ccccc3)c3ccccc3c2o1 | 4.59
19 | O=C(COC(=O)c1ccc(-c2ccc([N+](=O)[O-])cc2)o1)NC(=O)NC1CCCCC1 | 0.0678
20 | CCCN1Cc2cccc(C(=O)NCc3ccccc3OC)c2C1=O | -34.2
21 | Cc1cccc(-n2c(C)cc(/C=C3\NC(=O)NC3=O)c2C)c1 | 2.75
22 | CCCn1c(=O)c2ccccc2n2c(SCCOc3ccccc3F)nnc12 | -29.9

Row | SMILES | hERG current change (%, negative = inhibition) at 10uM [%]
23 | CCCCn1c(N)c(N(CCOC)C(=O)c2ccc(-c3ccc([N+](=O)[O-])cc3)o2)c(=O)[nH]c1=O | -18
24 | COC(=O)c1ccccc1S(=O)(=O)Nc1ccc(OC)nc1 | -0.17
25 | COc1ccc(NC(=S)N(CCc2ccc(OC)c(OC)c2)Cc2ccccn2)cc1 | -32.6
26 | CCOC(=O)CNc1c(-c2ccc(O)cc2)nc2ccccn12 | -39.3
27 | CCOc1ccc(CCNC(=O)C2CCN(c3ccc(N4CCOCC4)nn3)CC2)cc1OCC | -1.75
28 | NC(=O)C1CCN(C(=O)CCSc2ccccc2)CC1 | 1.11
29 | Cc1ccccc1NC(=O)CCl | -1.22
30 | OCCC1CN(Cc2cccc3nonc23)CCN1Cc1ccsc1 (stereo not drawn) | -52.6
31 | COc1ccc(N2CCN(C(c3cccs3)C(C)NC(=O)C(=O)N3CCOCC3)CC2)cc1 (stereo not drawn) | 5.49
32 | Nc1ncnc2c1ncn2C1CCCO1 (stereo not drawn) | 7.09
33 | FC(F)(F)C12CC(c3ccccc3)=NCCN1CCN2 (stereo not drawn) | 13.1
34 | Cc1nc(-c2nnc(SCC(=O)Nc3ccc(C(F)(F)F)cc3)n2C)cs1 | -13.6
35 | Cc1nc(SCC(=O)N2CCCc3ccccc32)c2oc3ccccc3c2n1 | 2.01
36 | CC(O)C(=O)O.COc1ccc(CN(CC(O)COc2cccc3[nH]cc(C)c23)C(C)(C)C)cc1 (stereo not drawn) | -60.6
37 | Cc1cccc(-n2ncc3c2CCCC3NC(=O)CCc2cccnc2)c1C (stereo not drawn) | 25.3
38 | COc1ccc(CCN2C(=O)NC(NS(=O)(=O)c3ccc(Cl)cc3)(C(F)(F)F)C2=O)cc1OC (stereo not drawn) | 14.2
39 | Cc1ccc(-c2ccccc2NC(=O)CS(=O)CC(=O)Nc2ccc(C)c(Cl)c2)o1 (stereo not drawn) | 0.484
40 | O=c1oc2c3c4c(cc2c2c1CCC2)OCCN4CCC3 | -0.13
41 | Cc1nc(Nc2cccc(C(C)O)c2)c2nnn(Cc3ccc(F)cc3)c2n1 (stereo not drawn) | 5.08
42 | Clc1ccc2nc(-c3ccc4c(c3)OCO4)cn2c1 | 16.2
43 | O=S1(=O)N=C(N(CCO)/N=C/c2ccc(Cl)cc2)c2ccccc21 | 4.3
44 | O=C(CCc1nc2ccccc2[nH]c1=O)OCc1ccc(S(=O)(=O)N2CCOCC2)cc1 | -4.49

Row | SMILES | hERG current change (%, negative = inhibition) at 10uM [%]
45 | CCC(CC)c1nnc(NC(=O)C2CC(=O)N(CCc3ccc(F)cc3)C2)s1 (stereo not drawn) | 0.832
46 | Nc1nc(-c2cccnc2)nn1C(=O)COc1ccccc1 | 5.7
47 | Cc1ccc(NN=Nc2nc3c([nH]2)c(=O)n(C)c(=O)n3C)cc1 | 5.51
48 | CCc1cc(=O)oc2cc(C)cc(OC(C)C(=O)NCCCN3CCOCC3)c12 (stereo not drawn) | 1.67
49 | Cc1ccccc1Nc1nc(NCc2ccco2)c2ccccc2n1.Cl | -63.6
50 | CCOc1cc(S(=O)(=O)Nc2ccncc2)ccc1F | 12.8
51 | CN(Cc1ccccc1)C(=O)COc1ccc2ccccc2c1 | 2.59
52 | COc1ccc(-c2oc(NC(=O)CSc3nncn3C)c(C#N)c2-c2ccc(OC)cc2)cc1 | 8.67
53 | Cc1ccc(S(=O)(=O)/N=C2/NC(=O)/C(=C/c3ccccn3)S2)cc1 | -10.1
54 | COc1ccccc1OCC(=O)Nc1nonc1NC(=O)COc1ccccc1OC | 6.65
55 | O=C(c1cccc(C(=O)N2CCN(c3ccccc3)CC2)c1)N1CCN(c2ccccc2)CC1 | -41.7
56 | O=[N+]([O-])c1nn(-c2ccc3c(c2)OCCO3)n(O)c1=Nc1ccccc1 | -1.76
57 | C=CC[C@@]12C=C(OC)C(=O)C(OC)=C1O[C@H](c1ccc3c(c1)OCO3)[C@H]2C | 10.7
58 | CCCc1nnc(SCC(=O)NC2CC2)n1C | 12.6
59 | COc1ccc(NC(=O)c2ccc([N+](=O)[O-])cc2[N+](=O)[O-])c(OC)c1 | 9.82
60 | Cc1cc(S(=O)(=O)N2CCN(Cc3ccccc3)CC2)c(C)s1.Cl | -21.8
61 | CC1=NN(CCC#N)C(=O)/C1=C/c1ccc(N(C)C)cc1 | 23.1
62 | N/C(=N\OC(=O)COc1ccc(Cl)cc1Br)c1cccnc1 | -8.3
63 | O=CNc1ccc(OP(=O)(Oc2ccccc2)Oc2ccccc2)cc1 | -61.7
64 | O=C(CCS(=O)(=O)c1ccc2c(c1)NC(=O)CS2)NCCc1ccccc1 | 8.31
65 | OCCC1CN(Cc2ccsc2)CCN1C1CCCC1 (stereo not drawn) | -9.06
66 | Nc1nc(SCC(=O)Nc2ccccc2-c2ccccc2)n[nH]1 | -1.48

Row | SMILES | hERG current change (%, negative = inhibition) at 10uM [%]
67 | NNC(=O)/C(=N/Nc1ccccc1)S(=O)(=O)c1ccc(Cl)cc1 | -8.15
68 | COc1ccc(/C(=C\Nc2ccc(C)c(C)c2)C(C)=O)cc1OC | -0.0535
69 | CC(=O)OCC1=C(C(=O)O)N2C(=O)C(NC(=O)CC(C)c3ccccc3)C2SC1 (stereo not drawn) | -0.761
70 | Cc1ccc(Nc2nc(N)nc(CN3CCN(C)CC3)n2)cc1 | -27.8
71 | O=C(N/N=C/c1cccc(C(F)(F)F)c1)c1ccccc1O | 10.4
72 | COC(Cn1c(-c2cccc(S(=O)(=O)N(C)C)c2)n[nH]c1=S)OC | 15.7
73 | Cn1c2c(c(=O)n(C)c1=O)C(c1ccc(Br)cc1)Nc1ccccc1O2 (stereo not drawn) | -19.4
74 | Cn1cc(Cl)c(C(=O)Nc2nc3ccc(Cl)cc3s2)n1 | -14
75 | NNC(=O)COc1ccc(C(F)(F)F)cc1 | 15.6
76 | COCC(=O)n1nc(-c2ccccc2)nc1NCc1ccc(F)cc1 | -10.6
77 | CC(C)c1ccc2oc(=O)cc(CN3CCN(c4ccc(F)cc4)CC3)c2c1 | -2.26
78 | CCCn1c(SCC(=O)Nc2cccc(C(=O)OC)c2)nnc1-c1cccnc1 | -42
79 | CCOC(=O)c1nnc(-c2ccc(C)cc2)nc1Sc1cccc(Cl)c1 | -10.2
80 | COc1ccccc1NC(=O)Nc1nnc(CC(=O)Nc2ccccc2C)s1 | 24.9
81 | O=C(NCc1ccco1)/C(=C\c1cccs1)NC(=O)c1ccccc1 | 3.5
82 | CCOC(=O)c1ccc2c(c1)n(Cc1ccccc1)c(C)[n+]2CC.[O-][Cl+3]([O-])([O-])[O-] | -7.56
83 | O=C(Cc1ccccc1)N/N=C/c1ccc2cccc(O)c2n1 | -0.649
84 | O=C1SCCC1NS(=O)(=O)c1ccccc1[N+](=O)[O-] (stereo not drawn) | 2.12
85 | CCOC(=O)c1ccc(NC(=O)c2cccnc2)cc1 | 16.6
86 | C#CCNC(=O)C1=C[C@H](c2ccc(Br)cc2)[C@@H](CCCO)[C@H](OCC)O1 | -29.9
87 | CNC(=O)c1c(O)c2cccc3c2n(c1=O)CCC3 | 12

Reference: paper PMC4336329 (PLoS ONE, 2015)
